Reference: PubChem BioAssay AID1346428 (National Center for Advancing Translational Sciences (NCATS), 2018)
Where “and” joins values, the source holds several entries; their conditions need not be identical. Equal values may be shown once. The campaign covered roughly 48,000 compounds. About 1,200 (2.5%) were called active. Another 2% or so got no clear call; they are omitted.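 How the source made its calls: active means activation of at least 60% and not above a set upper limit (about 1 call in 100 departs from these limits); inconclusive means activation of 40% to 60%, or above that upper limit; inactive means activation under 40%.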 Some of the results follow.

The compounds below were run against Probable G-protein coupled receptor 32 (Homo sapiens) (UniProt O75388) (assay: qHTS for Agonists of Human Resolvin D1 Receptor DRV1). Conditions: CHO-K1 GPR32 beta-arrestin PathHunter luminescence, 90 min; at 76.9 µM; active compounds read high; zero percent set by DMSO-only wells.
In short: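 Agonism was scored as beta-arrestin recruitment to ProLink-fused GPR32 in stably transfected CHO-K1 cells, giving a chemiluminescent beta-Gal signal; compounds were incubated 90 min at 37 °C.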
Further: 0% is about no effect.

SMILES | activation
CCN(CCCNC(=O)c1ccc(Sc2ccc(F)cc2)c(NC(C)=O)c1)c1ccccc1 | inactive: -16.8%
Cc1ccc(F)cc1NC(=O)Cn1c(=O)nc(-c2ccccc2F)c2cc(Cl)ccc21 | inactive: -8.79%
Cc1ccc(-c2nc3c(C)cccn3c2Nc2ccccc2C)s1 | inactive: -21.3%
COc1ccc(C2=C(C)C(=O)N(Cc3ccc(C(=O)Nc4cccc(F)c4)cc3)S2(=O)=O)cc1 | inactive: -3.39%
CC1CCCN(c2nc3c(S(=O)(=O)c4ccc(C(C)C)cc4)nnn3c3ccsc23)C1 (stereo not drawn) | inactive: -9.67%
CCC1CCCCN1CCCNC(=O)c1c(O)nc2ccccn2c1=O (stereo not drawn) | inactive: -1.42%
COc1ccc(-c2csc(-c3nc(-c4ccc(Br)s4)cs3)n2)cc1F | inactive: -2.21%
COc1ccccc1C(=O)NCc1nnnn1-c1ccc(C)c(C)c1 | inactive: -2.37%
CCCC1=Nc2cc(C(=O)NCCc3ccc(OCC)cc3)ccc2Sc2ccccc21 | inactive: -21.6%
COc1cc2c(-c3ccccc3O)nc3c(c(C)nn3-c3ccccc3)c2cc1OC | inactive: -22.7%
COc1cccc(CN2C(=O)c3ccccc3Sc3ccc(C(=O)NCCc4ccc(C)cc4)cc32)c1 | inactive: -12.4%
CCC(=O)N1CCc2cc(S(=O)(=O)N(C)c3cccc(C)c3)ccc21 | active: 63.2%
O=C(/C=C/c1ccccc1)N1CCN(Cc2cc(=O)n3nc(-c4ccccc4)sc3n2)CC1 | inactive: 0.561%
COC(=O)CSc1nnc2n(-c3ccccc3)c(=O)c3c4c(sc3n12)COC(C(C)C)C4 (stereo not drawn) | active: 64.6%
CS(=O)(=O)c1ccc([C@@H](O)[C@@H](CO)NC(=O)C(Cl)Cl)cc1 | inactive: 23.5%
CCCOc1ccc(C2C(=O)N(C3CCCCCC3)CC(=O)N2CCCOCC)cc1OC (stereo not drawn) | inactive: -14.7%
Cc1ccccc1NC(=O)c1sc2nc(N3CCOCC3)c3c(c2c1N)CC(C)(C)OC3 | inactive: -18.1%
CCN(c1cc(C)cc(C)c1)S(=O)(=O)c1nnc(NC(=O)c2cccc(F)c2)s1 | inactive: 22.1%
CCOc1ccccc1N1CC(c2nc3ccccc3n2CCOc2ccc(C(C)(C)C)cc2)CC1=O (stereo not drawn) | active: 72.9%
CCOc1ccccc1N(C)C(=O)Cn1nc(Cc2cccnc2)c2ccccc2c1=O | inactive: -89%
COc1cc(NC(=O)N2CCN(c3cc(-c4noc(C)n4)ccc3C)CC2)cc(OC)c1OC | inactive: 9.31%
CC(C)Cc1ccc([C@H](C)C(=O)O)cc1 | inactive: -2.99%
COc1ccc2c(c1)c1c(c(=O)n(CCc3ccccc3)c(=O)n1Cc1ccc(Cl)cc1)n2C | inactive: 5.25%
Cc1ccc(NC(=O)/C(C#N)=C\c2ccc(Cl)cc2Cl)cc1C | inactive: 33.8%
Nc1c(-c2nc(-c3ccccc3)no2)nnn1CC(=O)Nc1ccccc1 | inactive: -19.5%
COc1ccccc1CNC(=O)Cn1ncc2c(C)n(Cc3ccccc3Cl)c(C)c2c1=O | inactive: -19.7%
Cc1ccc(-c2ccc(CCC(=O)O)n2-c2ccc(C(C)C)cc2)cc1 | inactive: 3.54%

SMILES | activation
CCN(c1ccc(C)cc1)S(=O)(=O)c1nnc(NC(=O)c2cccs2)s1 | active: 84.6%
CC(C)c1ccccc1NC(=O)CSc1nnc(COc2ccccc2Cl)o1 | active: 86.5%
CCOc1ccccc1NC(=O)N1CCN(S(=O)(=O)c2ccc3c(ccn3C)c2)CC1 | inactive: -22.9%
CCN(CC)CCNC(=O)c1cc2c(=O)[nH]c3ccc(C)cc3c2s1 | inactive: 6.67%
Cc1coc2cc3oc(=O)c(CC(=O)NCc4ccccc4)c(C)c3cc12 | inactive: -4.52%
C[C@]12C=CC(=O)C=C1CC[C@@H]1[C@@H]2[C@@H](O)C[C@@]2(C)[C@H]1CC[C@]2(O)C(=O)CO | inactive: 9.77%
CCOc1ccccc1NC(=O)c1cc(S(=O)(=O)NC2CCCC2)ccc1F | inactive: -29.7%
COc1cccc(-c2cnc(NCc3ccccc3Cl)n2C)c1 | inactive: -11.2%
CC(=O)N1CCCc2cc(S(=O)(=O)N3CCCC(C(=O)Nc4ccc(C)c(C)c4)C3)ccc21 (stereo not drawn) | inactive: -8.74%
CC(C)(C)c1ccc(S(=O)(=O)Nc2ccc(O)c(Sc3nc4ccccc4s3)c2)cc1 | inactive: 2.42%
Cc1ccc(C)c(N2CCN(C(=O)c3cc4c(=O)n(Cc5cccs5)ccc4nc3C)CC2)c1 | inactive: -34.8%
Cc1ccc(S(=O)(=O)Nc2cc3c(cc2Cl)n(C)c(=O)c(=O)n3C)cc1 | inactive: 7.24%
CCOc1ccc2nc(N3CCC(C(=O)Nc4c(C)cccc4C)CC3)sc2c1 | inactive: -4.07%
O=c1[nH]cc(F)c(=O)[nH]1 | inactive: 7.35% and inactive: 9.43%
Cc1ccc(C)c(CN2C(=O)c3ccccc3S(=O)c3ccc(C(=O)N(C)Cc4ccccc4)cc32)c1 (stereo not drawn) | inactive: -25.1%
CCOc1cc(NC(C)=O)ccc1C(=O)OC | inactive: 1.06%
CCCCOc1ccc(CNC(=O)c2ccc(NC(=O)N3CCSc4ncccc43)cc2)cc1 | inactive: 12.4%
Cc1ccc(-n2ncc(C(=O)N3CCC(c4ccccc4)C3)c2C2CCN(C(=O)OC(C)(C)C)CC2)cc1 (stereo not drawn) | inactive: -16.8%
O=S(=O)(Nc1cccc(-c2ccc(N3CCOCC3)nn2)c1)c1ccc(F)cc1F | inactive: 28.9%
O=C(Nc1nc(-c2ccc(Br)cc2)ns1)c1ccccc1F | active: 60.3%
CCCc1nn2c(C)c(-c3ccccc3)nc2s1 | inactive: -2.09%
Cc1cc(C)c2oc(C(=O)Nc3ccc(S(=O)(=O)N(C)c4ccccc4)cc3)cc(=O)c2c1 | inactive: -17.3%
O=c1c2c3c(sc2n(Cc2cc(=O)n4ccccc4n2)c(=O)n1-c1ccc(Cl)cc1)CCC3 | inactive: -3.51%
COC(=O)CCN(C(=O)c1c(C)oc2ncnc(N3CCOCC3)c12)c1ccccc1 | inactive: -17.8%
Cc1cccc(N2CCN(C(=O)C3CCN(S(=O)(=O)c4ccc5c(c4)oc(=O)n5C)CC3)CC2)c1C | inactive: 8.14%
COc1ccccc1C(=O)OCc1cc(=O)n2nc(-c3cccs3)sc2n1 | inactive: 25.3%
